In PubChem BioAssay AID686971 (National Center for Advancing Translational Sciences (NCATS), 2013):
Screen size: about 360,000 compounds; about 7,500 (2.1%) were called active. This list was built around the results that the source calls inconclusive (neither active nor inactive); the mix of calls is not that of the screen. The call rests on the fitted dose curve; in most records, active means well fitted cell-killing curve with a large enough effect; inconclusive means small, poorly fitted or top-dose-only effect, or effect the other way, or another doubt; inactive means no such curve, though single readings can be large or run the other way. No potency is given beside an inconclusive call; the fits are too rough.

test: qHTS for induction of synthetic lethality in tumor cells producing 2HG: qHTS for the HT-1080-IDH1KD cell line; conditions: HT-1080 IDH1 knockdown viability, ATP luminescence, 48 h; activity, negative = toxicity: at 46.1 µM (top of the series) unless noted;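 on activity, negative = toxicity: 0% = DMSO wells and -100% = cell-free medium wells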
Outline: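 After a 2 h attachment period, IDH1KD HT-1080 cells took pin-transferred compound for 48 h at 37 °C; ATP-based luminescence after 10 min room-temperature reagent incubation reported viability.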
Potency means the concentration at half of the fitted maximal effect; tags describe the fitted curve by direction and shape.

Row | Structure (SMILES) | Potency | activity, negative = toxicity
1 | CCOC(=O)c1ccc(N2CSC3=C(C#N)C(c4ccc(OC)cc4OC)CC(=O)N3C2)cc1 (stereo not drawn) | inconclusive [cytotoxic, single point] | 
2 | COCCN(C(=O)COC(=O)C1CCC(C(C)(C)C)CC1)c1c(N)n(Cc2ccccc2)c(=O)[nH]c1=O (stereo not drawn) | inconclusive [cytotoxic, single point] | 
3 | C[C@H](CO)N1C[C@H](C)[C@@H](CN(C)C(=O)c2ccc(N3CCN(C)CC3)cc2)OCc2cnnn2CCCC1=O |  | inactive: 17.2%
4 | CC(=O)NN1C(=O)/C(=C\c2ccc(Cl)cc2)SC1=S | inconclusive [cytotoxic, single point] | 
5 | O=C(NNC(=O)c1cc(-c2cccnc2)nc2ccccc12)Nc1ccc(Cl)cc1 | inconclusive [cytotoxic, partial curve] | 
6 | Cc1cc2nc(-c3ccc(F)cc3)c(Cc3ccccc3)n2c(C)c1Br | inconclusive [cytotoxic, single point] | 
7 | COc1ccc(OC)c(C2C3=C(N=c4s/c(=C\c5cccc(O)c5)c(=O)n42)c2ccccc2CC3)c1 (stereo not drawn) | active: 20.6 µM | 
8 | C=CCOc1cccc(C(=O)N2CCCC(Nc3ccc(F)cc3)C2)c1 (stereo not drawn) | inconclusive [cytotoxic, partial curve] | 
9 | CCC1CCCCN1C(=O)c1cc(COc2ccc3ncccc3c2)on1 (stereo not drawn) |  | inconclusive: -37% [cytotoxic]
10 | CCCN1CCC(=O)N([C@H](CSc2ccc(OC)cc2)c2ccccc2)CC1 |  | inactive: 1.94%
11 | CN1c2ccccc2N(C)C1(C)c1ccccc1 | inconclusive [cytotoxic, single point] | 
12 | COc1ccc(S(=O)(=O)N2c3ccccc3OCC2C)cc1 (stereo not drawn) | active: 0.651 µM | 
13 | CCN(CC)C(=O)C1=C(C)N(CCCOC)C(=O)C(CC(=O)NC2CC2)C1 (stereo not drawn) |  | inactive: -6.35%
14 | CCc1cc(C(=O)N2CCCC(C(=O)c3ccc(Oc4ccccc4)cc3)C2)n(C)n1 (stereo not drawn) | inconclusive [cytotoxic, single point] | 
15 | COc1ccccc1NC(=O)N(Cc1ccco1)Cc1cc2ccc(C)c(C)c2[nH]c1=O | active: 2.59 µM | 
16 | CC(C)CC(=O)NC(NC(=S)Nc1cccc2cccnc12)C(Cl)(Cl)Cl (stereo not drawn) | inconclusive [cytotoxic, single point] | 
17 | Cc1cc(C)n(-c2ccc(C(=O)Nc3sccc3C(N)=O)cc2)n1 | inconclusive [cytotoxic, single point] | 
18 | N#Cc1ccc(NC(=O)COC(=O)CCc2ccc(S(=O)(=O)N3CCCCC3)cc2)cc1 | inconclusive [cytotoxic, single point] | 
